Experimental data: the supplement of paper PMC11417369
± gives the standard deviation of the averaged measurements. Some of the results follow.

test system: PfAP2-LT AP2 domain (GST-tagged); test: gcPBM binding intensity (ln(normalized median fluorescence intensity)); higher = stronger DNA binding
Outline: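 The highest Masliner-normalised natural-log median intensity across replicate spots of either probe orientation is reported as binding intensity. GST-tagged P. falciparum DNA-binding domains expressed in E. coli were applied for 1 h to an Agilent 4 × 180k array of primer-extended double-stranded 36-bp intergenic genomic probes plus negative controls, and bound protein was detected with Alexa488 anti-GST antibody and scanned at 488 nm.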

| Sequence | gcPBM binding intensity (ln) |
| --- | --- |
| TAGTTGCACATGTATACACACAAAAAATATTTTATG [CACACA_site475] | 9.04 ± 0.4 |
| AATAAATATAGGTACACACACAAATATGTACATATC [CACACA_site6976] | 9.46 ± 0.33 |
| AAGAAACCATAATATGCATGCACATATTAATAAATA [TGCATGCA_site693] | 8.99 ± 0.47 |
| AAGTGGTTATAATCAACACACGTGGAATGTACTTTA [CACACA_site3700] | 8.99 ± 0.45 |
| TTATAATTTTAATGTGCACACAATTAAAATATTATA [CACACA_site5172] | 8.8 ± 0.35 |
| TATAAATAAATATACACACACACATATAAATATGTA [CACACA_site6504] | 9.63 ± 0.22 |
| TATTGACAAAAAAAAAAAAGGTAAAAAAGAAAGAAA [GTGCAC_negctrl_site418] | 8.54 ± 0.62 |
| TTTTGTTTATGTGTGCATTATATTATATTTTTTATT [TGCATGCA_negctrl_site146] | 9.07 ± 0.61 |
| TGTAAGAAATTGAGCGCACACATACATCTGTGGGAT [CACACA_site4945] | 9.35 ± 0.46 |
| CTACATACAAGAATTAAACACACACTAATTATAAAT [CACACA_site8986] | 9.3 ± 0.38 |
| CCTCAATATTCACATACACACAATATCATCGAAGTA [CACACA_site1676] | 9.07 ± 0.4 |
| ATATGGGTAATGAATTGTACTCTTTCTTGTTGTTCT [XGTACX_site4487] | 9.06 ± 0.54 |
| TGTAATAAATAGTACACACACACATATTTATATATC [CACACA_site6770] | 9.72 ± 0.23 |
| GTATAATTTTCGTATTCACACAAGAATATACTACAT [CACACA_site4877] | 8.91 ± 0.45 |
| AATATATGTATGTACGCATGTATGTATCTATGTATT [TGCATGCA_site389] | 9.04 ± 0.39 |
| TTATAATTATATACATGTACATATAATACATATATA [XGTACX_site8904] | 8.65 ± 0.33 |
| ATAATTATATATTTATGTACGCATAAATATTTATAT [XGTACX_site5765] | 8.64 ± 0.39 |
| TATTTATTGTGATACTACTATTATTTTATGATTAAA [CACACA_negctrl_site284] | 8.5 ± 0.42 |
| ACCCAATTTTAAAATGAACACACATGTTTTTCTTAC [CACACA_site8246] | 9.02 ± 0.39 |
| TATACAACTTTATGAAGTACAAAAAGTTCTATATAT [XGTACX_site3866] | 8.53 ± 0.33 |
| TTGTTTTATTATTCGATGCACTACAGAAATATATTC | 8.72 ± 0.4 |
| TATATATAACTTTATTGTACAAAATATTATGTATTC [XGTACX_site981] | 8.76 ± 0.36 |

| Sequence | gcPBM binding intensity (ln) |
| --- | --- |
| TTATATTATTTTTAATGTACTTTTTATGAATACAAA [XGTACX_site689] | 8.38 ± 0.51 |
| AACTATATCATTTATTTTATTTTTTAAATACATTTA [CACACA_negctrl_site183] | 8.63 ± 0.52 |
| AGAAAAGTTTAATACAGTACATAAACAAAGTATAGG [XGTACX_site2386] | 8.89 ± 0.56 |
| GTATATTTATAGCCTTTATTATATTTAATATTATTA [TGCATGCA_negctrl_site26] | 8.54 ± 0.46 |
| TATAATATTATATATAAACACACATACACATGTAAA [CACACA_site8631] | 9.09 ± 0.23 |
| GTTATATTTTTTTATACACACTGGAATATATAAATA [CACACA_site4282] | 8.64 ± 0.39 |
| TTTATTATTTTTAGGAGTACACAAAATAAAACAAAT [XGTACX_site8841] | 8.45 ± 0.43 |
| TATTTACCCTCATGTTGTACTTTTCATTCATTTTAT [XGTACX_site7794] | 9.07 ± 0.45 |
| ACAAGTTTTTTTTTATCACACACAAAAAAAAAAATA [CACACA_site8377] | 8.77 ± 0.52 |
| GAAAATACGTTTAATCGTACATATATATAATATATA [XGTACX_site4243] | 8.68 ± 0.43 |
| AACATACATAGACACACACACACACGCACACGCACA [CACACA_site6373] | 10.35 ± 0.071 |
| ATTAATTATAATGTATGTACATAACTTTTTTATATT [XGTACX_site5784] | 8.75 ± 0.45 |
| AAAATCATTCCAAAGACATGCATTTTGCAAATAAAA [TGCATGCA_site461] | 8.6 ± 0.45 |
| TATATTATATACCATTGTACATATAATATAGGTTCT [XGTACX_site7047] | 8.74 ± 0.37 |
| TCTATAAAGGAATATACACACATATATAAATATGTA [CACACA_site6332] | 8.89 ± 0.35 |
| TTTTGTTATAAATAATGTACATATTTATTTAAAATT [XGTACX_site6610] | 8.39 ± 0.39 |
| AAAAACAGAAATGTAACACACAAAAATTCTATTTAT [CACACA_site4026] | 8.97 ± 0.52 |
| TATAAAAATGTGCACACACACACATATTTATATTTA [CACACA_site6826] | 9.79 ± 0.15 |
| AACCTTTATATGTAAAGTACAAAAAAGAGTAAAAAA [XGTACX_site5506] | 8.65 ± 0.55 |
| AAAAATAAGAAAAAGTGTACTTTATTATGTATATAT [XGTACX_site2305] | 8.61 ± 0.61 |
| ATTATTTTTTTTCTTATACACACCATGCATCAAACT [CACACA_site2128] | 9.02 ± 0.48 |
| ACTTGTAAGAAACACACACACACACCGATATATATA [CACACA_site4594] | 10.1 ± 0.31 |

| Sequence | gcPBM binding intensity (ln) |
| --- | --- |
| AAAAAAAAAAAAAAAACACACATTTAATGAACTTAT [CACACA_site1276] | 8.8 ± 0.49 |
| ATATATAATCATATGTGTACATATATATTAATTTAA [XGTACX_site2839] | 8.79 ± 0.34 |
| AATTCAAAATAAAAATGTACATATATCAGAATATGG [XGTACX_site42] | 8.73 ± 0.43 |
| TTTTTTTTTTATGTTATTAAAAAAAAAAAAAATTAA [CACACA_negctrl_site222] | 7.79 ± 0.34 |
| AAGATACACTTAATCGCACACGAAATTATATATTTA [CACACA_site3063] | 8.96 ± 0.42 |
| TATAACATTGTATGAATGCACTTTTATCTATTTTAA [GTGCAC_site9903] | 8.68 ± 0.47 |
| ATGAGAAAATATATTATTTTATATGAACAAGTTTAT [XGTACX_negctrl_site372] | 8.51 ± 0.4 |
| AAAATTATATATTATAGTACATAAAATATTGATAAA [XGTACX_site8988] | 8.61 ± 0.5 |
| AAATGTTATATATAATGTACTTGTAAGAACGTTCCT [XGTACX_site2840] | 8.73 ± 0.44 |
| ATAATTTTAAATAAATGTACATATAGATGTGTGTAA [XGTACX_site3958] | 8.9 ± 0.42 |
| AATAATGTATGAAATAAACACACAAGTAAGTACATA [CACACA_site8776] | 9.29 ± 0.5 |
| ATAATATGAAACTAAGGTACACATATATTAACAGAG [XGTACX_site3842] | 8.97 ± 0.54 |
| TACAAATTAATATGTACACACAAATATATATATATA [CACACA_site1977] | 9.41 ± 0.19 |
| TGCGACCATAATAAAGCACACAATGAAAAATATATA [CACACA_site256] | 8.93 ± 0.45 |
| TGTGCTCAAAATTATGCACACACCTAAAATTAATTT [CACACA_site8950] | 8.95 ± 0.33 |
| TAAGTATACTCATACACACACACACTAGAAAAAAAA [CACACA_site4397] | 9.68 ± 0.25 |
| AGAGATACATAAAAAAGTACATATAAAATTTAGGAA [XGTACX_site7201] | 8.88 ± 0.49 |
| TATTTATTTATATACACACACTTGTATAAAAAATGT [CACACA_site7048] | 9.02 ± 0.36 |
| TTTTTTTTTTTTTATTGTACATGCAAAAAATTCCAC [XGTACX_site2371] | 8.47 ± 0.42 |
| GTAAGTATATATAAATGTACTTATGAGGTCAAATTA [XGTACX_site3392] | 8.8 ± 0.4 |
| TTGGGTATTTTGTGCGCACACACATGCAAAAAGAAA [CACACA_site8299] | 9.36 ± 0.45 |
| TCTGTATTTCCTTATGCATGCATTAGCAAGATAATA [TGCATGCA_site483] | 8.78 ± 0.35 |

| Sequence | gcPBM binding intensity (ln) |
| --- | --- |
| ATATATATATATTGTAGTACTTATTAAATTATTTAT [XGTACX_site6235] | 8.84 ± 0.23 |
| TATACATATTTTATAGCACACAAATAATAATATGTA [CACACA_site8129] | 8.69 ± 0.44 |
| CCAACTATATTATGAAGTACATATATATTATATATA [XGTACX_site5767] | 8.7 ± 0.26 |
| AAACCTACATAACATACACACGCATATATATAATTT [CACACA_site8923] | 9.31 ± 0.38 |
| AAAGGTAAGCAGAATAGTACAGAAGAAAAAATATTT [XGTACX_site2941] | 8.96 ± 0.63 |
| TTTTGTTTGTTCGTGACTACATTATGTTGTAAATAC [CACACA_negctrl_site604] | 8.93 ± 0.41 |
| CAACATTTGAGACACACACACATACAAACAAACAAA [CACACA_site7538] | 9.86 ± 0.41 |
| ATCAAAAAAAAAAAATTTTTTTTTTTGTTTGTTTCC [CACACA_negctrl_site1042] | 8.27 ± 0.63 |
| TATCCTATAAATAATACATGCATATATATATATATT [TGCATGCA_site638] | 9.03 ± 0.23 |
| AAATAGTATATAATATGTACATACATAAAAATGTAT [XGTACX_site3524] | 8.9 ± 0.46 |
| ACCTATGTATATTATACACACTCCAAACTATTATTT [CACACA_site1817] | 9.06 ± 0.52 |
| TTATATATATAGAAGTGTACAAAATTTCCTAGACCT [XGTACX_site3900] | 8.88 ± 0.42 |
| ATCAAAATGTTAAAGATACACACCTAACAAACACAA [CACACA_site955] | 9.2 ± 0.35 |
| GCACGCTGTATGAATGCACACATTCATAGAATTGCT [CACACA_site8852] | 9.04 ± 0.35 |
| TATAAATATTTATAAACACACAAATATATATATTTA [CACACA_site27] | 8.6 ± 0.48 |
| TATCGACATTTCATTTGTACATATATACATATATTT [XGTACX_site3346] | 9.01 ± 0.4 |
| AAGAAAATTAAATTAACACACATAAATATGTAAATA [CACACA_site6882] | 9.06 ± 0.46 |
| CCAATAATATATAGAAGTACAGAAAAAAAAAAAAAA [XGTACX_site2049] | 8.64 ± 0.42 |
| CCCTCTTCTCTCATATCACACATGTCATCCTTATCC [CACACA_site5078] | 9.21 ± 0.52 |
| GAAAAATGAAGAGAACAAAATTTTATGATATATATA [GTGCAC_negctrl_site231] | 8.74 ± 0.42 |
| CCTTGAACCCCACTAACACACACACCCACGCTCAGA [CACACA_site8976] | 9.66 ± 0.17 |
| TTTCATAAATAAATATGTACATAATTAATAATAAAT [XGTACX_site5882] | 8.63 ± 0.47 |
